Measurements taken from PubChem BioAssay AID463173 (ICCB-Longwood Screening Facility, Harvard Medical School, 2010).
Out of some 52,000 compounds screened, about 1,700 (3.3%) were called active. Cut-off read from the data, not from the text of the source: active = survival mostly below about 52% (no sharp cut-off); inactive = mostly above about 56%. Some of the results follow.

These molecules were tested on Wild type (assay: growth inhibition of S. aureus wild type versus tarO mutant, primary screen, teichoic acid synthesis inhibitors, RN4220, OD600 (AID 463173)). Settings: S. aureus RN4220 wild type/DeltatarO growth, OD600, 18 h, stronger effect = lower value, screened at 18.75 µg/mL (by protocol).

Row | SMILES | survival
1 | COc1cc(OC)c(NC(=O)c2cc(S(=O)(=O)N3CCCC3)cn2C)cc1Cl | inactive: 87%
2 | CC(NC(=O)CSc1n[nH]c(-c2ccccc2)n1)c1nc2ccccc2n1C (configuration not stated) | inactive: 59%
3 | Cc1ccc(S(=O)Cc2nc(-c3ccc(C(=O)NC(C)c4ccccc4)cc3)oc2C)cc1 (configuration not stated) | inactive: 92%
4 | CCCCc1ccc(Nc2ncnc3c2cnn3-c2ccc(C)cc2)cc1 | active: -1%
5 | CCC1CCCCN1C(=O)Cn1c(=O)n(CC2CCC(C(=O)NC)CC2)c(=O)c2sccc21 (configuration not stated) | inactive: 74%
6 | COc1ccc(N2CCN(Cc3nc4c(c(=O)[nH]c(=O)n4C)n3Cc3ccccc3)CC2)cc1 | inactive: 116%
7 | Cn1c(=O)c2sccc2n2c(CCC(=O)NCc3ccccc3)nnc12 | inactive: 148%
8 | CC(C)=CC1C(C(=O)Nc2ccc(Cl)cn2)C1(C)C (configuration not stated) | inactive: 113%
9 | COC(=O)c1ccc(C(=O)OC)c(NC(=O)c2c(-c3ccccc3)c(-c3ccccc3)nn(C)c2=O)c1 | inactive: 90%
10 | Cc1ccc2c(c1)nc(SCC(O)c1ccc(Br)cc1)n2C (configuration not stated) | inactive: 83%
11 | COc1ccc(Cl)cc1S(=O)(=O)Nc1cccc(-c2ccc(N3CCOCC3)nn2)c1 | inactive: 89%
12 | O=C(/C=C/c1ccccc1)N1CCCC1=O | inactive: 119%
13 | NC(=O)c1c(O)c2c([nH]c1=O)CCCC2 | inactive: 109%
14 | COc1cccc(CCNc2ncnc3c2nnn3C)c1 | inactive: 84%
15 | COc1cc2c(=O)n(CCC(=O)NCC3CCCO3)c(=O)n(CC(=O)Nc3c(C)cccc3C)c2cc1OC (configuration not stated) | inactive: 71%
16 | CCCCOC(=O)c1ccc(NC(=O)/C(C#N)=C/c2ccc(-c3ccccc3)o2)cc1 | inactive: 21%
17 | O=C(NCc1ccc(F)cc1)c1cc2c(s1)-c1ccccc1SC2 | inactive: 50%
18 | COc1ccc(NC(=O)c2cc3c(=O)n(Cc4ccco4)ccc3nc2C)c(OC)c1 | inactive: 88%
19 | O=C(CCCn1c(=O)c2ccccc2n(CC(=O)Nc2ccc(F)cc2F)c1=O)NCc1ccccc1Cl | inactive: 113%

Row | SMILES | survival
20 | CC(=O)c1ccc(NC(=O)CSc2ccc3nc(-c4ccccc4)cn3n2)cc1 | inactive: 68%
21 | CCOC(=O)Nc1ccc2c(c1)OCO2 | inactive: 116%
22 | Cc1ccc(-c2cc(C(=O)N3CCN(S(=O)(=O)c4ccc(Br)s4)CC3)[nH]n2)c(C)c1 | inactive: 65%
23 | COc1cc(-c2nnc(SCC(=O)NC(C)C)o2)cc(OC)c1OC | inactive: 115%
24 | CCOc1ccc(CCNC(=O)C2Cc3ccccc3N2C(=O)CC)cc1OCC (configuration not stated) | inactive: 92%
25 | CCC(NC(C)=O)c1ccccc1 (configuration not stated) | inactive: 112%
26 | Cc1ccc(N(CC(=O)Nc2ccc(Br)c(C)c2)S(=O)(=O)c2cccs2)cc1 | inactive: 82%
27 | CN(C)c1ccc(CNC(=O)C(Cc2ccccc2)NS(=O)(=O)c2ccc3c(c2)oc(=O)n3C)cc1 (configuration not stated) | inactive: 85%
28 | CCc1ccc(CNC(=O)Cc2c(C(=O)O)c(C)cn2C)cc1 | inactive: 63%
29 | CCc1nnc(SCc2nc(-c3ccccc3)oc2C)c2cc3sccc3n12 | inactive: 78%
30 | N#Cc1cc2cc3c(cc2nc1SCC(=O)N1CCN(c2ccc(F)cc2)CC1)OCCO3 | inactive: 113%
31 | COc1ccc(-c2cn3nc(N4CCC(C(=O)Nc5cc(Cl)ccc5OC)CC4)sc3n2)cc1 | inactive: 81%
32 | CC(C)(C)OC(=O)N1CCC(c2c(C(=O)N3CCN(c4ncccn4)CC3)cnn2-c2ccc(F)cc2F)CC1 | active: 1%
33 | Cc1ccc(C)c(NC(=O)Cn2c(=O)n(Cc3cccs3)c(=O)c3cccnc32)c1 | inactive: 74%
34 | COc1ccc(-c2nc(SCC(=O)N3CCC(C)CC3)n[nH]2)cc1 | inactive: 159%
35 | Nc1c(C(=O)Nc2ccc(Cl)cc2F)sc2nc(-c3cccs3)ccc12 | inactive: 58%
36 | COc1ccc(OC)c(NC(=O)C(CCSC)NS(=O)(=O)c2cccs2)c1 (configuration not stated) | inactive: 78%
37 | Cc1ccccc1C(=O)Nc1ccc2nc(SCCOc3ccccc3)sc2c1 | inactive: 90%
38 | COc1ccc2sc(N3C(=O)C4CC=C(C)CC4C3=O)nc2c1 (configuration not stated) | inactive: 99%

Row | SMILES | survival
39 | CCOC(=O)c1c(S(=O)(=O)NCC(=O)NCc2ccc(C)cc2)c(C)n(C)c1C | inactive: 81%
40 | Fc1ccc(CNc2cc(-c3ccccc3)nc3nncn23)cc1 | inactive: 29%
41 | COc1ccc(C(=O)Nc2ccc(C(=O)OCc3cc(=O)n4nc(C(C)C)sc4n3)cc2)cc1 | inactive: 67%
42 | Cc1ccc(Cl)cc1NC(=O)/C(C#N)=C\c1cn(Cc2ccc(F)cc2)c2ccccc12 | inactive: 83%
43 | CCN(CC)CCOC(=O)c1ccc(NC(=O)c2cc3c(=O)n(CC)c4ccccc4c3s2)cc1 | inactive: 106%
44 | Cc1ccc(S(=O)(=O)N2CCC(C(=O)NCc3ccccc3Cl)CC2)cc1 | inactive: 64%
45 | Cc1cccc(NC(=O)c2cc(S(=O)(=O)NCCc3ccccc3)ccc2F)c1C | inactive: 69%
46 | COc1ccccc1C1c2c(-c3ccc(Cl)cc3)n[nH]c2C(=O)N1c1ccc(C)cc1 (configuration not stated) | inactive: 85%
47 | Cc1ccccc1C(=O)Nc1cccc(OCc2cc(=O)n3c(C)csc3n2)c1 | inactive: 92%
48 | CCN1CCN(Cc2c(O)ccc3c(C)c(-c4ccc(OC)cc4)c(=O)oc23)CC1 | inactive: 136%
49 | CCCCCn1c(=O)[nH]c2cc(C(=O)Nc3ccc(F)c(F)c3)ccc2c1=O | inactive: 98%
50 | CCc1ccc(N2C(=O)C3C(C(=O)OC)=NN(C(C)=O)C3C2=O)cc1 (configuration not stated) | inactive: 102%
51 | N#Cc1ccc(-c2cccs2)nc1SCC(=O)Nc1cccc(C(F)(F)F)c1 | inactive: 74%
52 | Cc1cc(SCC(=O)NCc2ccc(Cl)cc2)nc(=O)[nH]1 | inactive: 91%
53 | Cc1ccccc1S(=O)(=O)Cc1ccc(C(=O)N2CCN(c3cccc(Cl)c3)CC2)o1 | inactive: 68%
54 | COc1ccc(NC(=O)C2=CC(c3ccco3)=NS(=O)(=O)N2C)cc1 | inactive: 107%
55 | Cc1ccc(C)c(NC(=O)CN2CCSc3ccc(S(=O)(=O)N4CCCC4)cc32)c1 | inactive: 75%
56 | COc1ccccc1N1CCN(c2ncnc3c2nnn3C)CC1 | inactive: 129%
57 | CCOC(=O)c1oc2ccc(S(=O)(=O)n3nc(-c4ccc(C)cc4)cc3N)cc2c1C | inactive: 74%
